B1: LINE1-mini (parent)
chain: GGCAGAGCUCAACACAGCGUGGCAAAGUGGCUGUGGCUAGACUGCC

Read counts are not given, so values of variants with three or more changes are uncertain.

Here are results for 56 variants from the RNAGym collection of RNA variant scans (doi:10.7554/elife.90254).

This series covers variants of B1. Put plainly: self-cleavage, relative activity (ratio to wild type); higher = more cleavage; in vitro, sequencing; the parent is a self-cleaving ribozyme.
With GGCUGAGCUCAACGCAGUGUGGCAAAGUGUCUGUGUCUAGACUGCC [A4U A14G C18U G30U G36U], the self-cleavage stood at 0.17.
With GGCGGAGCUCAACACAGCGUUGCAAAGUAGCUGUGGCUAGACUGCC [A4G G21U G29A] the figure was 0.39.
With GGCGGAGCUCAACACAGCGUGGCAAAGUAGCAGUGGCCACACUGCC [A4G G29A U32A U38C G40C] the figure was 0.04.
The value for GGCUGAGCUCAACACCGCGUGGCAAAGGGGCUGUGGCUAGACUGCC [A4U A16C U28G] was 0.05.
For GGCUGAGCUCAACACGGCGUGGCGAAGUGGCUGUGGUUAGACUGCC [A4U A16G A24G C37U], the self-cleavage was 0.05.
The value for GGCUGGGCUCAACACAUCAUGGCAAAGUGGCCGUGGCUAGACUGCC [A4U A6G G17U G19A U32C] was 0.01.
As to GGCGGAGCUCAACACAGCGUGGCAAAUUGGCAGUGGCUAGACUGCC [A4G G27U U32A], the self-cleavage is 0.56.
Regarding GGCUGAGCUCAACGCAGCCUGGCUAAGGGGCAGUGGCUAGACUGCC [A4U A14G G19C A24U U28G U32A], the self-cleavage stood at 0.05.
In the case of GGCUGAGAUCAACACAGCGUCGCAAAGUGGCUGUGGCUAGACUGCC [A4U C8A G21C], the self-cleavage was 0.02.
In the case of GGCUGAGCUCACCACAGCGUGGCAAAGUGGCUGUGGCUAUACUGCC [A4U A12C G40U], the self-cleavage is 0.03.
The value for GGCGGAGCUCAACACAACGUGCAAAAGCGUCUGUGGCUAGACUGCC [A4G G17A G22C C23A U28C G30U] was 0.1.
With GGCUGAGUUAAAUACAGCGUGGCUAAGUGGCUGUGGCUAGUCUACC [A4U C8U C10A C13U A24U A41U G44A] the figure was 0.04; with GGCGGAGCUCAACACAGCGCGGCAAAUUGGCUGUGGCUAGACUGCC [A4G U20C G27U], 0.09.
With GGCUGAGCUCAACACGGCGUGUCAAAGUAGGUGUGGCUAGACUGCC [A4U A16G G22U G29A C31G] the figure was 0.02; with GGCGGAGCUCAACACAGCGUGUCAAAGUGGCGGUGGCUAGACUUCC [A4G G22U U32G G44U], 0.3.
Consider GGCGGAGCUCAACACAGCGUGCCAAAGUUGCUGUGGCUAGACUGCC [A4G G22C G29U], for which the self-cleavage was 0.21.
With GGCGGAGCUCAACACAGCGUGGCAAAGUGGCUUUGGCUGGAGUGCC [A4G G33U A39G C42G] the figure was 0.12; with GGCGGAGCUCAACACAGCCUGGUAAAGUGGCUGUGGCUAGACUGCC [A4G G19C C23U], 0.11; with GGCUGAGCUCAACACGGCUCGGCAAAGUGGCUGUGGCUAGACGGCC [A4U A16G G19U U20C U43G], 0.
With GGCUGAGCUCUAUACAGCGUGGCAACGUUGCUGUGGCUAGACUGCC [A4U A11U C13U A26C G29U] the figure was 0.04; with GGCGGAGCUCAACACAGCGUGGCAAAGUGACUGUCGCUAGACUGCU [A4G G30A G35C C46U], 0.02.
The value for GGCUGAGCUCAACGCAGCGUGACAAAGUGGCUGUGGCUAGACUGCC [A4U A14G G22A] was 0.12.
In the case of GGCUGAGCUCAACACAGCGUGGCUAAGUGGCUGUGGCUAGAUUGCC [A4U A24U C42U], the self-cleavage was found to be 0.09.
The value for GGCUGCGCUCAACACAGCGUGGCAAAGUCGCGGUGGCCAGACCGCC [A4U A6C G29C U32G U38C U43C] was 0.01; that for GGCGGAGCUCAACACAGCGCGGCACACUGGCUGUGGCUAGACAGAC [A4G U20C A25C G27C U43A C45A] was 0.03.
With GGCUGAGGUCAACACAGCCUGGCAAAGUGGCUUUGGAUAGACUGCC [A4U C8G G19C G33U C37A] the figure was 0.07; with GGCUGAGGUCAGCACAGCGUGGCAAAGUGGCGAUGGCUAGACUGCC [A4U C8G A12G U32G G33A], 0.05.
With GGCUGAGCUCAACACAGCGUGGCAAUGUGGCUGUGGCUAGACAUCC [A4U A26U U43A G44U] the figure was 0.49; with GGCGGAGCUCAACACAGCGUGGCAAAUUGGCUGUGGCUUGAUUGCC [A4G G27U A39U C42U], 0.06; with GGCUGAGCUCAGCACAGGAUGGCAAAUAGGCUGUGGCUAGACUGCC [A4U A12G C18G G19A G27U U28A], 0.01.
Take GGCGGAGCUCAACACAGCGAGGCAUAGUGGCUGUGGCUCGACUGCG [A4G U20A A25U A39C C46G]: the self-cleavage is 0.05.
Regarding GGCUGAGUUGGACACAGCGUGGCAAAGUGGCUGUGGCUAGACUGCA [A4U C8U C10G A11G C46A], the self-cleavage came out at 0.02.
With GGCUGAGCUCAACCCAGCGAGGCAAAGUGGCUGUGGCAAGUGUGCA [A4U A14C U20A U38A A41U C42G C46A] the figure was 0.01.
As for GGCGGAGCUCAACACACCGUGACCAAGUGGCUGUGGCUAGACUGCC [A4G G17C G22A A24C], the self-cleavage stood at 0.1.
The value for GGCUGGGCUCAACACAGCGUGGCAAAGUGGCUGGGGCUAGACUGCC [A4U A6G U34G] was 0.02; that for GGCUGAGCUCAGCACAGAGUGGCAAAGUGUCUGUGGCUAGAUUGCC [A4U A12G C18A G30U C42U] was 0.02.
The value for GGCUGAGAGCUACACAACGUGGCAAACUGGCUGUGGAUAGACUGCC [A4U C8A U9G A11U G17A G27C C37A] was 0.01; that for GGCGGAGCUCAACACAGCGUGUCAAAGUGGCUGUGGCUAGUCUGCC [A4G G22U A41U] was 0.75; that for GGCGGAGCUCAACACAGCGUGGCAAAGUUGCUGUGGCUAGAUUGCC [A4G G29U C42U] was 0.08.
For the variant GGCUGAGCUCUACACAGCGUGGCAAAGUGCCUGUGGCUAGACUGCC [A4U A11U G30C], the self-cleavage amounted to 0.04.
With GGCGGAGCUCAACACACCGUGGCAAAGUGGCGUUGGGUAGACUUCC [A4G G17C U32G G33U C37G G44U] the figure was 0; with GGCGGAGCUCAACACAGCGUGGCAAAGUGUCUGUGGCUAGAGUGCC [A4G G30U C42G], 0.36.
With GGCGGAGCUCAACACAACGUGGCAAAGUGGCUUUGGCUAGACUACC [A4G G17A G33U G44A], the self-cleavage turned out to be 0.04.
Regarding GGCGGAGCUCAACACAACGUGGCAAAGUGGCUGUGGCUAGACGGAC [A4G G17A U43G C45A], the self-cleavage is 0.03.
With GGCUGCGCUCAACACAGGGUGGCAAAGUGGCUGUGGCUAGACUGCC [A4U A6C C18G] the figure was 0.01; with GGCGGAGCUCAACACAUCGUGGCAAAGUGGCUGUGGCUAGACUGCG [A4G G17U C46G], 0.04; with GGCUGUGCUAAACACUGCGUGGCAAAGUGGCUGUGACUUGACUUCC [A4U A6U C10A A16U G36A A39U G44U], 0.01.
The value for GGCGGAGCUCAACACAGCGUGACAAAGUGGCUGCGGCUAGACUGCC [A4G G22A U34C] was 0.09.
With GGCGGAGCUCAACACAGCGUGGCAAAAUGGCUGGGGGUAGACUGCC [A4G G27A U34G C37G] the figure was 0.06.
For GGCUGAGCUCUACACAGCGUGGCAAAGUGGCUGUGGCAAGACUCCC [A4U A11U U38A G44C], the self-cleavage is 0.
On to GGCGGAGCUCAACACAGCGUGGCAAAGUGGCUGUUGUUAAACUGCC [A4G G35U C37U G40A], for which the self-cleavage turned out to be 0.1.
With GGCUGAGCUCAACUCAGCGUAGCAAAGUAGCUGUGGCUAGACUGCC [A4U A14U G21A G29A] the figure was 0.12; with GGCUGAGCUCAACGCAGCGUGGCUAAGUGGCUGUGGCUAGACAGCC [A4U A14G A24U U43A], 0.21; with GGCUGAGCUCAACCCAGCGUGGCAAAGUGGCUGUGGCUAGACUACC [A4U A14C G44A], 0.06.
With GGCUGAGUUGAACACAGCGUGGAUAAGUGGCUGUGGCUGGACUGCC [A4U C8U C10G C23A A24U A39G] the figure was 0.02; with GGCGGAGCUCAACACAGCGUGGCAAAGUGUCUGUGGAUAGACUGCC [A4G G30U C37A], 0.06.
